{"source": "PubChem BioAssay AID504832", "about": "(National Center for Advancing Translational Sciences (NCATS), 2011)", "note": "Out of some 310,000 compounds screened, about 18,000 (5.8%) were called active. This list was built around the results that the source calls inconclusive (neither active nor inactive); the mix of calls is not that of the screen. Calls follow the shape of the dose curve; as a rule, active = well fitted inhibition curve with a large enough effect; inconclusive = small, poorly fitted or top-dose-only effect, or another doubt; inactive = no such curve, though single readings can be large or run the other way. No potency is given beside an inconclusive call; the fits are too rough. % is scaled to controls: 0 for no effect and ±100 for the full control effect; potency is read from the fitted curve at half-maximal effect; tags tell the direction and shape of the fitted curve."}
{"test": "Primary qHTS for delayed death inhibitors of the malarial parasite plastid, 48 hour incubation", "details": "P. falciparum luciferase growth in erythrocytes; series mostly up to 28.7 µM; activity change, negative = inhibition: at the top concentration", "procedure,_shortened": "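Compounds are pin-transferred into medium, infected erythrocytes (2% hematocrit, 0.1% parasitemia final) are added, and plates sit one parasite generation at 37 C in 5% CO2. Detection reagent is then added and luminescence measured.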"}
{"smiles": "COc1ccccc1CN(Cc1nc2ccccc2c(=O)[nH]1)S(=O)(=O)c1ccc(C)cc1", "Potency": "active: 5.86 µM"}
{"smiles": "O=C(c1ccc(F)c(S(=O)(=O)N2CCOCC2)c1)N1CCN(c2ccc(F)cc2)CC1", "Potency": "inconclusive [inhibitor, single point]"}
{"smiles": "CCOc1ccc(Nc2nc(NCC3CCCO3)c3ccccc3n2)cc1", "note": "(stereo unspecified)", "Potency": "active: 1.17 µM"}
{"smiles": "COc1ccc(-c2cc(-c3ccc(OC)cc3)nc(-c3ccc4c(c3)NC(=O)CO4)c2)cc1", "Potency": "inconclusive [inhibitor, single point]"}
{"smiles": "Cc1noc(C)c1NC(=O)NC(c1ccccc1)c1ccccc1", "activity change, negative = inhibition": "inactive: 3.13%"}
{"smiles": "COc1ccc(CCN2CCCC(CN(C)Cc3cc(OC)c(OC)c(OC)c3)C2)cc1", "note": "(stereo unspecified)", "Potency": "inconclusive [inhibitor, single point]"}
{"smiles": "Cc1nc(N2CCOCC2)[nH]c(=O)c1C", "activity change, negative = inhibition": "inactive: 39.7%"}
{"smiles": "CSCCC(NC(=O)c1ccccc1Br)C(=O)NC(C)CCc1ccccc1", "note": "(stereo unspecified)", "Potency": "inconclusive [inhibitor, full curve]"}
{"smiles": "O=C(C1CCC(CNc2c(N3CCCCC3)c(=O)c2=O)CC1)N1CCN(c2ccccn2)CC1", "note": "(stereo unspecified)", "Potency": "inconclusive [inhibitor, full curve, poor fit]"}
{"smiles": "Cc1ccccc1OCc1nnc(SCC(=O)N2c3ccccc3Sc3ccc(Cl)cc32)o1", "Potency": "active: 10.4 µM"}
{"smiles": "CCC1=Nc2cc(C(=O)NCc3ccco3)ccc2Sc2ccccc21", "Potency": "active: 7.38 µM"}
{"smiles": "Cc1c(NC(=O)c2nn3c(C(F)(F)F)cc(-c4ccccc4)nc3c2Cl)c(=O)n(-c2ccccc2)n1C", "Potency": "inconclusive [inhibitor, partial curve]"}
{"smiles": "CCOc1cc(N2CCOCC2)c(OCC)cc1NC(=O)c1cc(-c2ccco2)nc2ccccc12", "Potency": "inconclusive [inhibitor, single point]"}
{"smiles": "Cc1cc(OCC(=O)OCC(=O)N2CC(C)CC(C)C2)ccc1Cl", "note": "(stereo unspecified)", "Potency": "inconclusive [inhibitor, full curve]"}
{"smiles": "CCc1cc(C(=O)N2CCOCC2)c(NC2=NS(=O)(=O)c3ccccc32)s1", "Potency": "inconclusive [inhibitor, partial curve, poor fit]"}
{"smiles": "Cc1cc(Cn2nnc3ccccc32)c(O)c(C(C)(C)C)c1", "Potency": "active: 11.7 µM"}
{"smiles": "Cc1c(/C(Cc2ccccc2)=N/O)c2ccccc2n1C", "Potency": "inconclusive [inhibitor, single point]"}
{"smiles": "COc1ccc(OC)c(CCNC(=O)CC2(CC3=NS(=O)(=O)c4ccccc4N3)CCCC2)c1", "Potency": "inconclusive [inhibitor, single point]"}
{"smiles": "O=C(Nc1cccc(OC(=O)N2CCCCC2)c1)N1CCOCC1", "Potency": "active: 10.4 µM"}
{"smiles": "COc1cc(C(C)=O)ccc1OC(=O)N(C)c1ccccc1", "Potency": "inconclusive [inhibitor, single point]"}
{"smiles": "Cc1ccc(/C=N/NC(=O)CSc2nc3ccccc3n2Cc2ccccc2)o1", "Potency": "inconclusive [inhibitor, partial curve, poor fit]"}
{"smiles": "Cc1ccc(NC(=O)CN(C)CC(=O)N(CC(C)C)c2c(N)n(CC(C)C)c(=O)[nH]c2=O)c(C)c1", "Potency": "inconclusive [inhibitor, single point]"}
{"smiles": "CCOC(=O)NC(c1ccccc1)C1CCCCC1=O", "note": "(stereo unspecified)", "activity change, negative = inhibition": "inactive: -4.48%"}
{"smiles": "Cc1noc2ncnc(Oc3cc(Cl)ccc3Cl)c12", "Potency": "inconclusive [inhibitor, single point]"}
{"smiles": "COc1ccc(/C=C/C(=O)Nc2c(C)nn(C)c2C)cc1COc1ccc(Cl)cc1Br", "Potency": "inconclusive [inhibitor, partial curve, poor fit]"}
{"smiles": "CNC(=O)CSc1nnc(-c2ccco2)n1-c1cccc(C)c1C", "Potency": "inconclusive [inhibitor, partial curve, poor fit]"}
{"smiles": "COc1cc(/C=C/C(=O)OCC(=O)Nc2ccccc2Sc2ccc(Cl)cc2)ccc1O", "Potency": "inconclusive [inhibitor, single point]"}
{"smiles": "Cc1ccc(NC(=O)COc2ccc(N(C)S(=O)(=O)c3ccc(F)cc3)cc2)cc1", "Potency": "inconclusive [inhibitor, single point]"}
{"smiles": "O=C(N/N=C(\\c1ccccc1)c1cccnc1)c1cccc(F)c1", "Potency": "active: 1.85 µM"}
{"smiles": "COc1ccc(CCNC(=O)[C@H](C)N2C(=O)N3CCc4c([nH]c5ccccc45)[C@@]3(C)C2=O)cc1", "Potency": "inconclusive [inhibitor, partial curve, poor fit]"}
{"smiles": "Cc1ccc(Cl)cc1N1CCN(C(=S)NCc2ccco2)CC1", "Potency": "inconclusive [inhibitor, single point]"}
{"smiles": "O=C(Nc1cc2c3c(c1)CC(=O)N3CCC2)c1ccc(Br)cc1", "Potency": "inconclusive [inhibitor, single point]"}
{"smiles": "Cc1cc(-n2c(SCC(=O)NCc3cccs3)nc3n[nH]c(C)c3c2=N)ccc1Cl", "Potency": "inconclusive [inhibitor, single point]"}
{"smiles": "Cc1ccc(S(=O)(=O)N2CCOCC2)cc1NC(=O)CSc1nnc(NC2CC2)s1", "Potency": "inconclusive [inhibitor, single point]"}
{"smiles": "O=C(NCCc1ccccc1)c1cc2sccc2n1Cc1ccccc1", "Potency": "inconclusive [inhibitor, partial curve]"}
{"smiles": "CCOC(=O)c1c(NC(=S)Nc2ccccc2C)sc2c1CCC2", "Potency": "inconclusive [inhibitor, partial curve]"}
{"smiles": "NC(=S)NNC(=O)c1cccc(Cl)c1", "activity change, negative = inhibition": "inactive: 8.87%"}
{"smiles": "Cc1cccc(CN2CCCC(C(=O)Nc3ccccc3Oc3cccnc3)C2)c1", "note": "(stereo unspecified)", "Potency": "active: 9.28 µM"}
{"smiles": "CC(=O)c1sc(NC(=O)c2cc(S(=O)(=O)N3CCOCC3)ccc2F)nc1C", "Potency": "inconclusive [inhibitor, single point]"}
{"smiles": "N#Cc1ccc(C(=O)OCc2cccc(S(=O)(=O)N3CCOCC3)c2)cc1", "Potency": "inconclusive [inhibitor, single point]"}
{"smiles": "COc1ccc(/C=C\\C(=O)Oc2cccc(/C=N/NC(=O)Cc3ccc(OC)c(OC)c3)c2)cc1", "Potency": "inconclusive [inhibitor, single point]"}
